According to the supplement of paper PMC12632987:
The full ranking holds about 2,300 sequences; the median of “median log2 fold change of GCK-ALFA target abundance (FLAG IP / Myc IP barcode read proportion)” is about 0.095, and the lowest 2% start at about -0.47. The list shows a part of the results.

B1: LC3A_132_261 (protein)
chain: MEELKEEALKELKELLDKIVEALQNGEDPWPLIKQLEEEAEKYAEKLSLEETEELVEESEEYAEKLFEEKLDPNDEEARRALDIIEMLLEGVLIEKELKE
B2: LC3A_23_633 (protein)
chain: MYRLEITIDLVGEKEKVEKAVEELIKHIKEVAKEKGATIKKLEVEIIEENDENGKTTFATINVVLEAETKEKLQAVADAITDKVEELGVSAIISVEITKL
B3: LC3A_28_1226 (protein)
chain: SHIEEEIEKAEKEAEEAKERGEEALIEVEITGEDTLEDVEYLMEKLEEIVEKYKDLPAISIVINLSGDVTQEQIDAAAEGGERIEEKFPNVTVIIALDEE
B4: LC3A_28_1082 (protein)
chain: SAVDAQIAAALAALRAAKAAGEEALLTLTLTEDATQEDVDRLIAGLEEIAELARDAARVTVVIDLDGKIPQEHIDRIADAAERIEERVPNVTVIIALDEE
B5: LC3A_28_1069 (protein)
chain: SHIDEQLEKALEEARKAKERGEEALITLTIDENSTEEDVEKVLETMREIAEITKDLPSTTIIVDVNNKNQEEVTQKISETGDELEKEYPHLNVIIALSEE
B6: LC3A_102_145 (protein)
chain: DQLEQLEKLRKKAEEEAKKIAKKIEKEDPERAKEILEILLTAIDALFTNARTQITHGFEDIEADAIFLDALDKLKKLGDKEGVKLLEKTKKEADELVKKA
B7: LC3A_45_1984 (protein)
chain: MYLATIDLLVPRELAEEALELTKEEAEELQEELGDELEVDFETLERSYEETKDEEDVYLRLNITHPDKDVALDAADEIVDDLEEALGGRVAAIISVKEVP
B8: LC3A_3_1693 (protein)
chain: MDELVKETLEVAKENGWSEEALEALKKLLDALKARGYEEAIKTLLEKLKELKDASSEDIKDMFLELLHLLETENLNEEEITEAIKEEARVLKSAKEIEEL
B9: LC3A_3_1588 (protein)
chain: SAELVEAQLERLRAAGLSPEVLAAARRVLEALAARGFEEAIKVLTEELLRLRDVDPAVLLAMLDDILHAVETEDLDEEEIIKLIKEEARVARLEAEIEEL
B10: LC3A_3_1832 (protein)
chain: LEEEREETIELLKEAGHSEETIEAFRETLELLLERGYEEAAKTLLELVREAVHLPSELLLEALKEVKEAILENDWSEEELTEKIKEIFNLYRNEYEIEEL
B11: LC3A_17_565 (protein)
chain: MEELRKEIEELIKELEELIKILAKEDPEAAKKVKELLEKAKKLLEEGDLRGAAEELEKAFRLAADRFEELSEKTNGKYANEEMLANGLELEAIGIIEKLE
B12: LC3A_3_1704 (protein)
chain: MEELLKEAEEILKKHGKSEETIKAALEALKALLERGYEEAAKELLELLKEAGDLSDEILLWFFEEVKEVVERPDLTEEEVIEEIKRLWQIAKNDQEIEEL
B13: LC3A_free_46_2336 (protein)
chain: YEVDVDIALRAAPREEIEETVERIKERFEEIAKKHNAEIEIDVEYYENEDGTWIAFIDIDITTEDKETAEKVAQEVSDAIDEIDEETGLVGMFSIEISEE
B14: LC3A_28_1182 (protein)
chain: SALEKALKAALAKAKEAAAKGEATVITITVPGTANEEDIKRVIKTMEEIAEILKDIPGSAIIIDLVGGVKEEHQKRLAEKAEEIEKKYPNITVIIALDDE
B15: LC3A_free_46_2311 (protein)
chain: VKAEITIDLLHDDEEVLKKAVEEIVKAIKEIAKEYGLEVEIEVSFSKDPDGSHFAEINITLKGETKEKLEAAVNKIIDEIDKIAEKYDVSYIISVEIEEE
B16: LC3A_free_39_2272 (protein)
chain: SEEEVEEIVEELEELLAENPEVSEEVREELLEIARENPEVGRVLAEHMRQALEEGRDVAALAEAAVKTYKELKAAGKSEEEITEEVDLVAAEHVNLIPLD
B17: LC3A_28_903 (protein)
chain: SPALESAEKALKEVKKAVAAGNQEPLVLEVKAPSTQEDVDKLLKLLEEIAEEASKLKGVSIIIDIDESVSQENRDRIIDKAEELEEKYPNVTIIIALPES
B18: LC3A_3_1484 (protein)
chain: MEEVIKETEEALKKAGKSEETIKAAREFLERLKEAGLEEAAKEMAEVIKEALDRPSDDLLKVLQAALAELKAIPNPTEEDAKEIVKETKLAFEIEELEEE
B19: LC3A_28_1180 (protein)
chain: SELEKSIEEALKEAEKAKKAGEPTVITINVPGDVTEEETERVIEAMEKIAELLKDIPGSAIVINVDSGVSQEHLDRILEKAEEIEKKYPNVTVIIALDEE

These binders were tested against MAP1LC3A, Q9H492 (assay: median log2 fold change of GCK-ALFA target abundance (FLAG IP / Myc IP barcode read proportion) (log2 ratio); each designed protein is fused to an ALFA-tag nanobody in HEK293 cells to bring the named protein to FLAG-tagged glucokinase (GCK); Myc marks an untargeted standard; higher = target protein stabilised (more abundant)). Details: target protein: 3xFLAG-MCP-GCK-ALFA reporter; HEK293 landing pad (RPLP).
In short: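 The readout is target abundance, the per-binder median log2 ratio of FLAG to Myc barcode read proportions. It came from HEK293 landing-pad cells carrying a recombined ALFA-nanobody-fused binder library, induced with 2 μg mL^−1 doxycycline and transfected with a plasmid for a FLAG-tagged target and a Myc-tagged standard. After 48 h, lysates were immunoprecipitated with anti-FLAG and anti-Myc, and circular RNA barcodes were reverse transcribed, amplified and sequenced. Each barcode needed a proportion of at least 10^−7 in both replicates and each binder at least 3 barcodes per replicate, a pseudocount of 10^−6 was added, and the replicates were pooled.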

Binder | median log2 fold change
B1 | -0.311
B2 | -0.00566
B3 | 0.0349
B4 | 0.081
B5 | -0.322
B6 | 0.167
B7 | -0.416
B8 | 0.378
B9 | 0.115
B10 | 0.178
B11 | 0.105
B12 | 0.397
B13 | -0.113
B14 | 0.104
B15 | 0.0722
B16 | 0.253
B17 | -0.303
B18 | 0.231
B19 | -0.0876
